Assay results from PubChem BioAssay AID1671188 (National Center for Advancing Translational Sciences (NCATS), 2021).
In all, about 100,000 compounds went through this assay and about 250 (0.25%) were called active. Inconclusive means that the source gave no clear call. Such entries were picked first, then a sample of the others. The call rests on the fitted dose curve; in most records, active means well fitted inhibition curve with a large enough effect; inconclusive means small, poorly fitted or top-dose-only effect; inactive means flat fitted curve, though single readings scatter. Potencies of inconclusive entries are left out as doubtful fits.

The compounds below were run against Alanine aminotransferase 2 (Homo sapiens) (UniProt Q8TD30) (assay: Primary qHTS assay for inhibitors of Glutamate pyruvate transaminase 2 (GPT2)). Details: Recombinant GPT2, coupled pyruvate oxidase/HRP Amplex Red fluorescence; series mostly up to 57.7 µM.
Method in brief: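 Fluorescence of coupled pyruvate oxidase/HRP/Amplex Red system (50uM Amplex, 30 min, dark) reports pyruvate formed by GPT2. Enzyme reaction: 10ng/uL GPT2, 2mM L-alanine, 250uM a-KG, 30 min room temperature, pH 7.5; 50uM AOA control.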
Further: nearly all actives have a fitted effect of over 60% in size.
Potency means the concentration at half of the fitted maximal effect; tags describe the fitted curve by direction and shape.

Chain of UniProt Q8TD30 (Q8TD30 whole entry, looked up): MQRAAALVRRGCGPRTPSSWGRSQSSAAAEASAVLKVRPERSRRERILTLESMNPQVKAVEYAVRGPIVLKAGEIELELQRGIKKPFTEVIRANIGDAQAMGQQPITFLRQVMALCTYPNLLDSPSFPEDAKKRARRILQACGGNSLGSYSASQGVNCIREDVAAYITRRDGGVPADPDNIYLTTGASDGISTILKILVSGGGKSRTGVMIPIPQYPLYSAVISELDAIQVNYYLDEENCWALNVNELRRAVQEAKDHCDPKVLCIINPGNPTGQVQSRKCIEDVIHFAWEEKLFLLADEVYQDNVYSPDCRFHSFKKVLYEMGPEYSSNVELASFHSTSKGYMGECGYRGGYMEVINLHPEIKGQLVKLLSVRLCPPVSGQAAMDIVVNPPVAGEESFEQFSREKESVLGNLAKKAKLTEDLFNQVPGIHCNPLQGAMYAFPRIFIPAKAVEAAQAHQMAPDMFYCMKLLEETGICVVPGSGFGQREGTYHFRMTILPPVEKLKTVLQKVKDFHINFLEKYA

| Structure (SMILES) | Potency |
| --- | --- |
| COc1ccc(C(=O)N2C[C@@H]3C[C@H](C2)c2c(NS(=O)(=O)c4cccs4)ccc(=O)n2C3)cc1 | inconclusive [inhibitor, single point] |
| COc1ccc(OCC2CCCN(C(=O)c3cn(C4CCCCC4)nn3)C2)cc1 (stereo unspecified) | inconclusive [inhibitor, single point] |
| COc1ccc2[nH]cc(CCNC(C)=O)c2c1 | inconclusive [inhibitor, partial curve] |
| O=C(C1CCOCC1)N1CC(Oc2cccc(-c3nc(-c4ccccc4)no3)c2)C1 | inactive |
| COc1cc(CN2CCN(c3noc(C(C)C)n3)CC2CCO)cc(OC)c1 (stereo unspecified) | inconclusive [inhibitor, single point] |
| O=C(Cc1ccccc1)N1CCCC2(CC(c3cccc(C(F)(F)F)c3)=NO2)C1 (stereo unspecified) | inconclusive [inhibitor, single point] |
| O=C(O)C[C@@H]1CCN(S(=O)(=O)c2ccc(F)cc2)C[C@@H]1CC1=NCCc2cc(F)ccc21 | inconclusive [inhibitor, full curve, poor fit] |
| Cn1cc(CN2CCCC(COc3ccccc3C(=O)NC3CC3)C2)c2ccccc21 (stereo unspecified) | inactive |
| O=C(CNC(=O)c1ccc(-c2cnc3ccccc3c2)cc1)NCc1cccc(F)c1 | inconclusive [inhibitor, single point] |
| COc1ccc2[nH]c3c(c2c1)CCNC31CCN(C(=O)C2CCN2C2CCCCC2)CC1 (stereo unspecified) | inactive |
| CS(=O)(=O)N1CCN2C(=O)N(C3CCCCC3)C[C@H]2C1 | inconclusive [inhibitor, single point] |
| O=C(c1ccc2c(c1)OCO2)N1CCn2c(nnc2-c2ccncc2)C1 | inconclusive [inhibitor, full curve, poor fit] |
| CN(C)c1ccc(C(=O)N2CCCC(COc3ccccc3C(=O)N3CCCC3)C2)cc1 (stereo unspecified) | inactive |
| CCn1nc(C)c(CCNC(=O)c2cccc(C3CCNC3)c2)c1C (stereo unspecified) | inconclusive [inhibitor, single point] |
| Cc1ccc(-c2noc(CCCC(=O)N3CCC(c4nc(C(=O)N5CCCC5)c(C)o4)CC3)n2)cc1 | inactive |
| C/C=C(/C)C(=O)OC1CC(C)(C)CC2C3=CCC4C5(C)CCC(OC6OC(C)C(OC7OC(C(=O)O)C(O)C(OC8OC(CO)C(O)C(O)C8OC8OC(CO)C(O)C(O)C8O)C7O)C(O)C6O)C(C)(C)C5CCC4(C)C3(C)C(OC(=O)/C=C/C=C/C=C/CCC)C(OC(C)=O)C12CO (stereo unspecified) | inconclusive [inhibitor, single point] |
| CN(Cc1ccc(C(F)(F)F)cc1)Cc1cccn1C | inconclusive [inhibitor, single point] |
| CCCOCCNC(=O)c1c(C)noc1-c1ccc(C(C)(C)C)cc1 | inconclusive [inhibitor, single point] |
| CCCNC(=O)Cc1ccc(N(Cc2ccc(F)cc2)C(=O)c2ccco2)cc1 | inactive |
| CCC1=C(C(=O)OC)C(c2ccccc2F)N2C(CC(=O)N3CCC(C)CC3)=CSC2=N1 (stereo unspecified) | inactive |
| COc1ccccc1C(=O)NC1CCN(c2cc(-c3ccccc3)[nH]n2)C1 (stereo unspecified) | inconclusive [inhibitor, partial curve] |
| CC(C)NC(=O)N1CCC(N2CC(OCC3CC3)C23CCCCC3)CC1 (stereo unspecified) | inconclusive [inhibitor, single point] |

| Structure (SMILES) | Potency |
| --- | --- |
| O=C(NCc1cccs1)c1cc(-c2cccs2)c2cccn2n1 | inactive |
| CN(C(=O)Cn1cccc1-c1nc(-c2ccccc2)no1)c1ccc(F)cc1 | inconclusive [inhibitor, single point] |
| COc1ccc(-n2nc3n(c2=O)CCN(Cc2ccc(C(F)(F)F)cc2)C3)cc1 | inactive |
| COc1ccc(-c2cc(N3CCCN(C(=O)Cc4cccc(Cl)c4)CC3)n[nH]2)cc1 | inconclusive [inhibitor, single point] |
| CN1[C@@H](CCC(=O)N2CCCC2)CNC(=O)[C@H]2NCC[C@H]21 | inconclusive [inhibitor, partial curve, poor fit] |
| COC(=O)[C@@H]1Cc2ncn(Cc3ccc(OC)cc3)c2CN1S(=O)(=O)Cc1ccccc1 | inconclusive [inhibitor, full curve, poor fit] |
| Cn1cccc1CN1CCC(N2Cc3ccccc3C2=O)CC1 | inactive |
| COC(=O)Nc1cc(Nc2cc(NC3CC3)c3ncc(C#N)n3n2)c(Cl)c(N2CCN(C)CC2)c1 | inactive |
| CC(=O)NC1(C)CCN(Cc2ccccc2-c2ccc3c(ccn3C)c2)C1 (stereo unspecified) | inconclusive [inhibitor, partial curve, poor fit] |
| COc1ccc(C(=O)N2CCC3(CC(c4cccc(C(F)(F)F)c4)=NO3)C2)cc1 (stereo unspecified) | inconclusive [inhibitor, single point] |
| CCN1c2cc(C(=O)Nc3ccc(F)cc3)ccc2C(=O)N2CCCCCC21 (stereo unspecified) | inactive |
| Cc1ccccc1Nc1n[nH]c(C(O)c2ccc3c(c2)CCO3)n1 (stereo unspecified) | inconclusive [inhibitor, single point] |
| Cc1onc(-c2cnn(C)c2NCCc2ccccc2)c1C(=O)N1CCCC1 | inconclusive [inhibitor, single point] |
| COc1ccc(-c2noc([C@@H]3Cc4nc[nH]c4CN3C(=O)Nc3ccc(C)cc3)n2)cc1 | inconclusive [inhibitor, single point] |
| CCN1c2cc(C(=O)Nc3ccc(Br)c(C)c3)ccc2C(=O)N2CCCCC21 (stereo unspecified) | inactive |
| NCc1cccc(-c2ccc(F)cc2F)c1 | inactive |
| CN(C)C(=O)CC1=C2CCCCC2N(C)C1=O (stereo unspecified) | inconclusive [inhibitor, single point] |
| CCN(CC)CC#CCOC(=O)C(O)(c1ccccc1)C1CCCCC1 (stereo unspecified) | inconclusive [inhibitor, partial curve, poor fit] |
| O=C(c1cccs1)N1CC[C@H](c2nnc(-c3ccc(Cl)cc3)o2)C1 | inconclusive [inhibitor, single point] |
| Cc1cc(=O)n(CC(=O)Nc2ccc(F)cc2)c(N2CCc3ccccc3C2)n1 | inactive |
| CCN(CC)CCSC(=O)C(c1ccccc1)c1ccccc1 | inconclusive [inhibitor, full curve, poor fit] |
| Cc1ccc(-c2cc3c(=O)n(CCNC(=O)c4ccc(Cl)cc4)ccn3n2)c(C)c1 | inactive |

| Structure (SMILES) | Potency |
| --- | --- |
| CCCn1cnc2c1CN(S(=O)(=O)c1cccc3cccnc13)[C@H](C(=O)OC)C2 | inconclusive [inhibitor, single point] |
| COc1ccc(OC)c(CNC(=O)C2CCc3sc(C(=O)N4CCCC4)cc3C2)c1 (stereo unspecified) | inconclusive [inhibitor, single point] |
| NC(=O)C1(N2CCCCC2)CCN(c2nccc(-c3ccccn3)n2)CC1 | inconclusive [inhibitor, single point] |
| O=C(c1cccc(Cl)c1)N1CCC(N(C(=O)C2CC2)C2CCOCC2)CC1 | inconclusive [inhibitor, single point] |
| Cc1ccc(NC(=O)N2CCc3c(c4cc(F)ccc4n3C)C2)cc1 | inconclusive [inhibitor, single point] |
| O=C(Nc1ccccc1Cl)N1CC(c2nnc(-c3ccncc3)o2)C2(CCOCC2)C1 (stereo unspecified) | inactive |
| CCCN1CCCC2(Cc3ccccc3CN(C(=O)Cc3ccc(OC)cc3)C2)C1 (stereo unspecified) | inactive |
| COc1ccc(Cl)cc1C(=O)NC1CCN(c2cc(-c3ccccc3)[nH]n2)C1 (stereo unspecified) | inconclusive [inhibitor, single point] |
| O=S(=O)(c1cccc2nonc12)N1CCC2(CCCNC2)C1 (stereo unspecified) | inconclusive [inhibitor, single point] |
| Cc1cccc(CCN2CCC3(CC2)C(C(=O)O)CC(=O)N3C)n1 (stereo unspecified) | inconclusive [inhibitor, single point] |
| CC1CCN(C(=O)C2(c3ccc(NC(=O)C4CC4)cc3)CCCCC2)CC1 | inactive |
| C[S+](=O)([O-])NCc1nnc2n1C(C(=O)NCc1ccccc1F)CC2 (stereo unspecified) | inactive |
| CCOc1cc(CN2CCOc3ccc(C(=O)NCc4ccc(C)cc4)cc3C2)ccc1O | inconclusive [inhibitor, single point] |
| Cc1cn2cc(CNC(=O)c3ccc(CN4CCCN(C)CC4)[nH]c3=O)nc2s1 | inactive |
| COc1ccc(Nc2ccnc(N3CCCC(C(=O)NC(C)C)C3)n2)cc1 (stereo unspecified) | inactive |
| COc1ccc2cc(C3CN(c4ncnc(C)c4C)CCO3)ccc2c1 (stereo unspecified) | inactive |
| O=C(c1ccccc1Cl)N1CCC(c2nn(Cc3ccccc3)c(=O)[nH]2)CC1 | inconclusive [inhibitor, single point] |
| O=C1Nc2ccc(-c3ccccc3F)cc2C(=O)N2CCN(C(=O)COc3ccccc3)C[C@H]12 | inconclusive [inhibitor, single point] |
| Cc1noc(C)c1-c1cnc2[nH]cc(CC(=O)NCc3cccnc3)c2c1 | inactive |
| Cc1ccccc1CC(=O)N1CCC[C@H]1c1nc(-c2ccccc2Cl)no1 | inconclusive [inhibitor, partial curve, poor fit] |
| O=C(c1ccccc1F)N1CCCC(C(=O)N2CCCC2c2nc3ccncc3[nH]2)C1 (stereo unspecified) | inconclusive [inhibitor, partial curve, poor fit] |
| Cn1cnc2cc(-c3ccc(F)cc3)cc(C(=O)NCCc3ccccn3)c21 | inactive |
